The term viability denotes a read-out of living cells in per cent, often relative to untreated cells.

Some of the results follow. The main result of the screen is listed elsewhere. These columns were measured beside it and carry no call.

This is an account of results in PubChem BioAssay AID1956 (SRMLSC, 2009).

The test is described as follows: compounds boosting herpes simplex virus growth – fold increase, host cell viability (AID 1956). Also: tested in PC3 cells. Particulars: HSV replication augmentation in cells; fold increase: measured here: primary screen fold increase 10 uM, at 10 µM, stronger effect = higher value; viability: measured here: host cell viability series, at 25 µM, stronger effect = lower value.
As to `CCCN1C(=O)S/C(=C/c2ccc(N3CCOCC3)o2)C1=O`, the fold increase was 1.65 and the viability was found to be 93%.
For `CCCN1C(=O)/C(=C/C=C2\N(CC)c3ccccc3C2(C)C)SC1=S` the same measures were 7.51 and 96.4%.
For `COc1cc(OC)c(-c2c3cc(O)c(=O)cc-3oc3cc(O)c(O)cc23)cc1OC` the same measures were 8.96 and 83.9%.
As for `COc1cc(/C=C2/SC(=Nc3ccc(O)cc3)NC2=O)ccc1O`, the fold increase came out at 3.47 and the viability is 40.4%.
On to `Cn1c(N/N=C/c2c[nH]c3ccccc23)nc2ccccc21`, for which the fold increase was determined as 1.09.
Still for that read-out and setting: the figure for `CCOc1ccc(C2=C(C=Nc3c(C)n(C)n(-c4ccccc4)c3=O)C(c3ccc(F)cc3)c3ccccc3O2)cc1` (centres undefined) is 1.22; for `CC(C)n1c(SCC(=O)Nc2nc3ccccc3s2)nc2c1c(=O)n(C)c(=O)n2C` it is 1.11.
With `Cn1c(SCc2ccc(C(C)(C)C)cc2)nnc1C1COc2ccccc2O1` (centres undefined), the fold increase worked out at 1.33 and the viability is 96.3%.
As for `NNC(=O)c1oc2nc(-c3ccccc3)cc(-c3ccco3)c2c1N`, the fold increase amounted to 3.14 and the viability was 104%.
The like results for `COc1ccccc1N1C(=O)C2C(C(=O)c3ccccc3)=NN(c3ccc(Br)cc3)C2C1=O` (centres undefined) were, in that order, 1.74 and 98.9%.
`O=C(NC(=S)NCc1ccco1)c1ccccc1` yielded a fold increase of 1.43.
Take `Nc1c(C(=O)Nc2ccccc2F)sc2nc(Cc3ccccc3)cc(C(F)(F)F)c12`: the fold increase amounted to 2.44 and the viability came out at 104%.
The like results for `O=C(Nc1ccc2c(c1)OCCO2)c1coc2ccccc2c1=O` were, in that order, 1.34 and 86%.
With `CC(C)OC(=O)C(C(=O)C(F)(F)F)c1cc(NS(=O)(=O)c2ccc3ccccc3c2)c2ccccc2c1O` (centres undefined), the fold increase stood at 1.68.
Still for that read-out and setting: the figure for `COC(=O)c1sc2cc([N+](=O)[O-])cc(SCC(C)C)c2c1N` is 3.77.
In the case of `O=C(NC1=NCCS1)c1ccccc1OCc1ccccc1Cl`, the fold increase is 1.37 and the viability amounted to 91.1%.
For `Cc1cccc(NC(=O)/C=C/c2ccc([N+](=O)[O-])s2)c1` the same measures were 1.85 and 7.57%.
Take `CCCCC(=O)Nc1ccc(C(=O)NNC(=O)c2ccccc2Br)cc1`: the fold increase stood at 1.32 and the viability turned out to be 98.5%.
For `O=C(Nc1cccn(Cc2cccc(F)c2)c1=O)NC1CCCCC1` the same measures were 1.34 and 91.3%.
The like results for `C/C(=N\NC(N)=O)c1ccccc1` were, in that order, 1.38 and 93.1%.
The like results for `O=C1NC(=S)N(C(=O)c2ccc(F)cc2)/C1=C/c1ccccc1` were, in that order, 1.75 and 90.3%.
Regarding `CCn1c(=O)cc(SCC(=O)NCc2ccccn2)c2ccccc21`, the fold increase was determined as 1.51 and the viability is 98.2%.
For `CCCCSc1cc(C)nc(N)n1` the same measures were 1.38 and 94%.
The like results for `O=C(Nc1ccccc1)c1ccc(NCCc2ccccc2)c([N+](=O)[O-])c1` were, in that order, 1.68 and 83.9%.
The like results for `Nc1c(S(=O)(=O)c2ccccc2)c2nc3ccccc3nc2n1Cc1ccco1` were, in that order, 2.28 and 88.3%.
In the case of `C=CCn1c(C)c(C(C)=O)c(N2CCN(c3ccccc3)CC2)nc1=S`, the fold increase worked out at 2.27 and the viability was determined as 97.6%.
`O=C(OCCN1C(=O)c2cccc3c(N4CCOCC4)ccc(c23)C1=O)c1cc(Cl)cc(Cl)c1` returned a fold increase of 3.44.
In the case of `CCN(CC)C(=O)CSC(Nc1ccc(F)cc1)=C(C#N)C#N`, the fold increase stood at 3.22 and the viability was found to be 87.3%.
As to `CN1CCc2c(sc3c2C(=O)NC(c2ccc(-c4ccc(Cl)cc4)o2)N3)C1` (centres undefined), the fold increase is 2.87 and the viability came out at 98.1%.
The like results for `COc1ccc2c(Cl)c(C(=O)N/N=C3\CCCC(=O)C3)sc2c1` were, in that order, 3.03 and 99.7%.
The like results for `O=c1c(O)c(-c2ccc3c(c2)OCO3)oc2ccccc12` were, in that order, 1.48 and 94.4%.
In turn, `Cn1c(=O)c2[nH]c(-c3ccccc3)c(O)c2n(C)c1=O` came in with a fold increase of 1.44.
In the case of `C=CCn1c(C(CCC(C)C)CC(C)(C)O)n[nH]c1=S` (centres undefined), the fold increase was found to be 1.37 and the viability worked out at 98.3%.
Take `COC(=O)C1=C(C(=O)OC)SC2(S1)C(C(=O)OC)=C(C(=O)OC)SC1=C2c2cc(C)ccc2NC1(C)C`: the fold increase came to 1.18.
In the case of `CC(=O)c1ccc(N2Cc3ccccc3/C2=N\C(=O)Nc2ccccc2)cc1`, the fold increase came out at 1.38 and the viability turned out to be 90.1%.
The like results for `CN1/C(=C\C=C2/C(=O)Oc3ccccc3C2=O)C(C)(C)c2ccccc21` were, in that order, 7.78 and 101%.
`COc1ccc(C2CC(=O)C=C(NNS(=O)(=O)c3ccc(C)cc3)C2)cc1` (centres undefined) registered a fold increase of 1.32.
In the case of `CC(=Nc1cccc(O)c1)c1sc2ccccc2c1O`, the fold increase is 2.28 and the viability is 79.7%.
Take `CC(=O)c1sc(N/N=C\c2cccc(Br)c2)nc1C`: the fold increase was 3.58.
In the case of `CN(C)c1ccc(/C=C/c2ccc3c4ccccc4ccc3[n+]2-c2ccccc2)cc1`, the fold increase worked out at 1.43 and the viability turned out to be 2.17%.
Regarding `CN1CCc2c(sc(/N=C/c3cccs3)c2C(N)=O)C1`, the fold increase was 1.4 and the viability was determined as 99%.
In turn, `COc1ccc(/C=C/C(=O)C2C(=O)C=C(C)OC2=O)cc1O` (centres undefined) showed a fold increase of 1.51.
Turning to `CN1CCC2(CC1)C1CN(C)CC=C1C(C#N)=C(N)C2(C#N)C#N` (centres undefined), the fold increase worked out at 1.78 and the viability was found to be 102%.
For the compound `COc1ccccc1-[n+]1c(C)cc(/C=C2\Sc3ccccc3N2C)cc1C`, the fold increase is 4.85.
Take `CCN1C/C(=C/c2ccc(N3CCOCC3)cc2)C(=O)/C(=C/c2ccc(N3CCOCC3)cc2)C1`: the fold increase turned out to be 3.85 and the viability was found to be 62.8%.
The like results for `O=C(CCN1C(=O)C2CC=C(Cl)CC2C1=O)NC1CCCCC1` (centres undefined) were, in that order, 1.35 and 98.5%.
The like results for `Cc1c2ccccc2nc2c(F)c(N(C)C)c(F)c(F)c12` were, in that order, 1.41 and 88.3%.
The like results for `Cn1c(=O)c(NCCO)c2c3c(cccc31)C(=O)c1ccccc1-2` were, in that order, 15.1 and 72.8%.
As for `CCc1cc(CNC(=O)CC2C(=O)NCCN2Cc2c(F)cccc2Cl)on1` (centres undefined), the fold increase worked out at 1.78 and the viability came out at 95.8%.
The like results for `CCOc1ccc(NC2OCC(O)C(O)C2O)c([N+](=O)[O-])c1` (centres undefined) were, in that order, 1.47 and 83.4%.
The like results for `Cc1ccc(N=C2NC(=O)/C(=C/c3cn(C)c4ccccc34)S2)cc1C` were, in that order, 3.85 and 71%.
For `O=C(CCCCCNC(=O)c1ccccc1)C[N+](=O)[O-]`, the fold increase is 1.32.
For `COc1cc2cc(CN(Cc3nnnn3Cc3ccco3)C3CCCCC3)c(=O)[nH]c2cc1OC`, the fold increase came out at 1.32 and the viability came to 93%.
For `FC(F)Sc1ccc(NC(=S)NC2CCC(NC(=S)Nc3ccc(SC(F)F)cc3)CC2)cc1` (centres undefined), the fold increase turned out to be 1.6.
With `C=CCN1C(=O)/C(=C/c2ccc(O)cc2)S/C1=N/c1nccs1`, the fold increase amounted to 7.27 and the viability came out at 73.7%.
For `C[C@H](NC(=O)OCc1ccccc1)C(=O)NNC(=O)[C@H](Cc1ccccc1)NC(=O)OC(C)(C)C` the same measures were 1.34 and 94.4%.
For `COc1cccc(-c2cc3c(=O)n(-c4ccccc4)c(=S)[nH]c3s2)c1`, the fold increase stood at 1.49.
In the case of `N#Cc1c(-c2ccc(F)cc2)cc(C2CC2)nc1SCC(=O)c1cccs1`, the fold increase amounted to 2.52 and the viability came to 94.4%.
For `O=c1cc(CO)oc(C(Nc2ccccn2)c2ccc(C(F)(F)F)cc2)c1O` (centres undefined) the same measures were 1.1 and 92.2%.
For the compound `CC(=Nc1ccc(C)cc1)c1sc2ccccc2c1O`, the fold increase was determined as 2.74 and the viability came out at 86%.
In the case of `CCCN1C=CC(=C/C=C(\C#N)C(=O)OCC)C=C1`, the fold increase stood at 2.39.
In the case of `CN(C)/C=C1\C=C2C(=O)c3ccccc3N2C1=O`, the fold increase came to 8.56 and the viability was determined as 95.1%.
For `NC(=S)Nc1cccc(Cl)c1` the same measures were 1.34 and 99.3%.
Consider `Cc1c(C(=O)OC2CCC(C)CC2)[nH]c2c1C(=O)CCC2` (centres undefined), for which the fold increase came out at 1.36 and the viability turned out to be 85.6%.
As to `COc1ccc(-n2c(Cc3cccn3C)nnc2SCC(=O)Nc2nccs2)cc1`, the fold increase amounted to 1.33 and the viability was 94.6%.
`CCN(CC)c1ccc(/C=C2\CCC(/C=N/NC(=O)c3ccc(=O)n(C)c3)=C2N2CCOCC2)cc1`: the fold increase is 1.63 and the viability was found to be 96.7%.
For `CCCCN(C(=O)NC(=O)Nc1nc2ccc(OC)cc2s1)S(C)(=O)=O` the same measures were 1.33 and 98.1%.
The like results for `COc1ccc(N=Cc2sc(O)c3ccccc23)cc1` were, in that order, 3.07 and 88.2%.
The like results for `O=S(=O)(c1ccc(Cl)nc1)N(Cc1ccccc1)Cc1ccccc1` were, in that order, 1.34 and 94.6%.
For the compound `CCN(CC)c1ccc(/C=N/Nc2nc(C)cc(C)n2)cc1`, the fold increase was found to be 1.49 and the viability is 43.4%.
In the case of `CCCN1CC=C2C(C#N)=C(N)C(C#N)(C#N)C(c3cc(OC)ccc3OC)C2C1` (centres undefined), the fold increase was 1.37 and the viability turned out to be 87%.
For `Cc1ccc(N=C2NC(=O)/C(=C/C=C/c3ccco3)S2)cc1` the same measures were 1.33 and 89.9%.
`Nc1ncc(Br)cc1N=Cc1ccccc1` showed a fold increase of 1.33.
For the compound `CCOc1cc(/C=N\Nc2ccc([N+](=O)[O-])cc2)ccc1OCC(=O)Nc1ccc(C)c(C)c1`, the fold increase is 1.56 and the viability was found to be 90.8%.
For `CCN(CC)S(=O)(=O)c1cc(C(=O)Nc2cccnc2)ccc1Cl`, the fold increase was found to be 1.47 and the viability was 93.3%.
With `Cc1ccccc1Oc1ncccc1C(=O)/C(C#N)=C/N(C)C`, the fold increase stood at 1.45 and the viability is 95.4%.
For `C=CCn1c(=O)/c(=C2/Sc3ccccc3N2CC)s/c1=C1/C(=O)NN=C1C` the same measures were 1.83 and 88.6%.
In turn, `COc1ccccc1N1C(=O)CC(Nc2ccc(N3CCOCC3)cc2)C1=O` (centres undefined) displayed a fold increase of 1.3.
Turning to `Cc1ccc(N2C(=O)c3cccc4c([N+](=O)[O-])ccc(c34)C2=O)c2cccnc12`, the fold increase came to 5.23 and the viability is 45.6%.
For `CCN(C(=O)CN1CCc2ccccc21)c1c(N)n(Cc2ccccc2)c(=O)[nH]c1=O` the same measures were 1.58 and 97%.
The like results for `O=C(C1=NN(c2ccccc2)C2C(=O)N(c3ccc(Cl)cc3)C(=O)C12)c1ccccc1` (centres undefined) were, in that order, 4.08 and 94.7%.
The like results for `Cc1ccc(S(=O)(=O)N(CC(=O)NCCSC2CCCCC2)c2ccccc2F)cc1` were, in that order, 1.51 and 91.2%.
Compound `O=C(CN1C(=O)C2CCCCC2C1=O)N1CCN(c2ncccn2)CC1` (centres undefined) came in with a fold increase of 1.32.
On the same count and under the same terms, the figure for `Cc1ccc(-c2c[n+]3c(n2-c2ccccc2)CCC3)cc1` is 1.32.
Same read-out and setting: as for `COc1ccc(C2C=C(c3ccc(Br)s3)Nc3ncnn32)cc1OC` (centres undefined), the figure is 3.36.
Same read-out and setting: as for `CC(=O)Oc1c(-c2ccco2)oc2ccccc2c1=O`, the figure is 3.37.
Consider `CN1/C(=c2/s/c(=C3/C(=O)N(c4ccccc4)NC3=Nc3ccccc3)n(C)c2=O)C(C)(C)c2ccccc21`, for which the fold increase turned out to be 1.83 and the viability was found to be 93.8%.
For `Cc1ccc(-n2nc3c(c2NC(=O)c2ccc(OC(C)C)cc2)CS(=O)C3)cc1` (centres undefined) the same measures were 1.32 and 96.4%.
`CCCCCCN1C=CC=C/C1=C/C=C(C#N)C#N` displayed a fold increase of 2.99.
The same measure, in the same setting: the figure for `Cc1nn(-c2cc(N3CCCC3)ccc2[N+](=O)[O-])c(=O)c2ccccc12` is 1.25.
Same read-out and setting: as for `COc1cccc(/C=N/NC(=S)Nc2cccc(C(=O)O)c2)c1O`, the figure is 1.34.
On to `CCN1CCN(c2c(/C=C3\SC(=S)N(Cc4ccco4)C3=O)c(C)c(C#N)c(=O)n2C)CC1`, for which the fold increase came to 3.54 and the viability amounted to 86.8%.
For `COc1ccc(CCNC(=O)CSc2nc3ccccc3o2)cc1OC` the same measures were 1.45 and 99.6%.
Consider `CCCCC(=O)OCC(=O)Nc1ccc(SC(F)F)cc1`, for which the fold increase stood at 1.37 and the viability was found to be 96.4%.
For `Cc1oc(C)c2c(=O)ccc3c(c12)OC(N)=C(C#N)C3c1ccccc1Cl` (centres undefined) the same measures were 1.64 and 92.3%.
